Test results: PubChem BioAssay (NCATS)
Inconclusive results, whose numbers are uncertain, are shown with a selection of clear calls. For part of these data: A potency beside an inconclusive call is a rough fit, not a confirmed value. Activity calls are given as the source filed them. Unless noted, calls follow the shape of the dose curve; as a rule, active = well fitted curve in the direction sought with a large enough effect; inconclusive = small, poorly fitted or top-dose-only effect, or another doubt; inactive = no such curve, though single readings can be large; an effect the other way counts as inactive or inconclusive.

Tests used:
[1] = Cell Viability - Jurkat (AID 426;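 active = dose-dependent loss of cell ATP signal giving a full or clear fitted curve, ranked by lower potency value; inconclusive = weak partial curve or response only at the top dose; inactive = no loss of viability signal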;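 also: potency is read from the fitted curve at half-maximal effect; cells exposed to compound for 40 hours at 37 °C before ATP read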); conditions: qHTS
In short: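 Cytotoxicity was scored as loss of cellular ATP, measured by luciferase-based luminescence, in Jurkat clone E6-1 cells after 40 h compound treatment; tamoxifen and doxorubicin served as positive controls.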

[2] = Cell Viability - Hek293 (AID 427;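 active = compounds whose dose-response curve shows a full or clear partial loss of cell viability, called from curve shape rather than a numeric limit; inconclusive = weak partial curves or an effect only at the top dose; inactive = no dose-dependent loss of viability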;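 also: potency is read from the fitted curve at half-maximal effect; cells exposed to compound for 40 hours at 37 °C before reading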); conditions: qHTS
In short: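 qHTS, human embryonic kidney (adenovirus-transformed) cells; 40 hr cpd, 37 °C; CellTiter-Glo ATP luminescence. Norm: DMSO = 0, 100 uM tamoxifen = 100% inhibition. Hill-fit AC50.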

[3] = Cell Viability - HepG2 (AID 433; calls by dose curve;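 also: potency is read from the fitted curve at half-maximal effect; potency for ATP loss meaning cytotoxicity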); conditions: qHTS
In short: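 Cytotoxicity is scored as loss of intracellular ATP in HepG2 cells exposed to compounds for 40 h. Concentration-response curves, normalized to DMSO and 100 uM tamoxifen, give AC50 values.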

[4] = Cell Viability - NIH 3T3 (AID 541); conditions: NIH 3T3 cell viability, qHTS; activity change, negative = cytotoxicity: at 92.2 µM (top of the series);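 also: plate controls were DMSO alone for no effect and tamoxifen positive control for full effect; nearly all actives have a fitted effect of over 25% in size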
In short: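 In this cytotoxicity screen, acute toxicity is scored as an ATP drop measured by CellTiter-Glo in NIH 3T3 fibroblasts following a 40 hr, 37 °C incubation with compound.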

[5] = Cell Viability - H-4-II-E (AID 543); conditions: H-4-II-E rat hepatoma viability; series mostly up to 92.2 µM; also: potency is read from the fitted curve at half-maximal effect; nearly all actives have a fitted effect of over 35% in size
In short: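 AC50 from Hill-modelled qHTS concentration-response curves. H-4-II-E rat hepatoma cells in complete medium, 40 hr exposure at 37 °C, viability by CellTiter-Glo ATP luminescence.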

[6] = Cell Viability - Mesenchymal (AID 546); conditions: mesenchymal cells viability, qHTS; activity change, negative = cytotoxicity: at 91.7 µM (top of the series);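 also: cells exposed to compound for 40 hours before reading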
In short: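 CellTiter-Glo luminescence (intracellular ATP, 20 min room temperature) after 40 hr compound exposure at 37 °C of 1000 glomerulus-derived human kidney mesenchymal cells/well; AC50 values obtained by fitting qHTS concentration-response data to the Hill equation.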

[7] = Cellular Toxicity (caspase-3) Jurkat (AID 655); conditions: Jurkat caspase-3 activation, luminescence; caspase-3 activation: at 92.2 µM (top of the series), DMSO = 0%, tamoxifen = 100%;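 also: cells exposed to compound for 16 h at 37 °C before reading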
In short: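 Caspase 3/7 activation is scored as increased luminescence in Jurkat cells cultured with compound for 16 hours in complete medium. AC50 values come from Hill fits of qHTS concentration-response data normalized to DMSO and 100 uM tamoxifen controls.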

[8] = Cellular Toxicity (caspase-3) BJ (AID 658); conditions: BJ fibroblasts, caspase-3 activation, luminescence; also: potency is read from the fitted curve at half-maximal effect
In short: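 Caspase-Glo 3/7 luminescence, read 1 hr after reagent at room temperature, in normal BJ fibroblasts exposed 16 hours at 37 °C. AC50 values from Hill-equation concentration-response, scaled between DMSO basal and 10 uM staurosporine as 100%.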

[9] = Cellular Toxicity (caspase-3) MRC-5 (AID 659); conditions: MRC-5 cells, luminescence; Potency: caspase-3 activation; series mostly up to 91.7 µM; also: potency is read from the fitted curve at half-maximal effect
In short: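 Luminescent Caspase-Glo 3/7 read-out (1 h, room temperature) after a 16 h, 37 °C compound exposure of MRC-5 lung fibroblasts at 1500 cells/well. Concentration-response AC50 from Hill equation; 0% DMSO, 100% 10 uM staurosporine.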

[10] = Cellular Toxicity (caspase-3) Mesangial (AID 660); conditions: mesangial cells, normalized: DMSO 0%, 100 µM tamoxifen 100%; at 91.7 µM (top of the series);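 also: combined caspase 3 and 7 activity read by Caspase-Glo luminescence; cells exposed to compound for 16 h before the caspase read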
In short: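 AC50 values come from Hill-equation fits of caspase 3/7 activation, measured as Caspase-Glo luminescence in human glomerular mesangial cells exposed to compound for 16 h at 37 °C; 100% set by 100 uM tamoxifen.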

[11] = Cellular Toxicity (caspase-3) SK-N-SH (AID 661); conditions: SK-N-SH caspase-3 activation, qHTS; caspase-3 activation: at 91.7 µM (top of the series), DMSO as zero, staurosporine as full;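 also: 0% = DMSO basal and 100% = 10 µM staurosporine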
In short: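 Apoptosis readout in SK-N-SH neuroblastoma: Caspase-Glo 3/7 luminescence following 16 hr treatment in complete culture medium. Normalization used DMSO and 10 uM staurosporine controls.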

[12] = Cellular Toxicity (caspase-3) H-4-II-E (AID 663); conditions: H-4-II-E rat hepatoma; Potency: caspase-3 activation; caspase-3 activation: at 92.2 µM (top of the series), scaled: DMSO 0%, 100 µM tamoxifen 100%;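 also: cells exposed to compound for 16 hr before readout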
In short: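 Caspase 3/7 activation measured by luminescent aminoluciferin substrate cleavage after 16 hr compound treatment of H-4-II-E cells in complete medium. Increase normalized between DMSO (basal) and 100 uM tamoxifen (100%); Hill-equation AC50 from concentration-response.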

[13] = Cellular Toxicity (caspase-3) Hek293 (AID 664); conditions: HEK293 caspase-3 activation, DMSO = 0%, 100 µM tamoxifen = 100%; at 92.2 µM (top of the series);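 also: cells exposed to compound for 16 h at 37 °C before readout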
In short: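 Apoptosis readout: Caspase-Glo 3/7 signal in human HEK293 cells following 16-hour compound incubation. Responses scaled between DMSO baseline and 100 uM tamoxifen.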

[14] = Cellular Toxicity (caspase-3) NIH 3T3 (AID 666); conditions: NIH 3T3 caspase-3 activation, apoptosis/toxicity; also: potency is read from the fitted curve at half-maximal effect
In short: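 Activity: caspase-3/7 induction, NIH 3T3 cells, 16 hr treatment at 37°C, luminescent Caspase-Glo detection; AC50 via Hill equation.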

[15] = Cell Viability - LYMP2-001 (AID 921); conditions: LYMP2-001 lymphoblastoid cell viability; series mostly up to 92.2 µM;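 also: potency is read from the fitted curve at half-maximal effect; cells exposed to compound for 24 h at 37 °C; nearly all actives have a fitted effect of over 70% in size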
In short: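 qHTS, 1536-well; lymphoblastoid cells, 24 hr compound, 37 C; ATP by CellTiter-Glo, 30 min RT; luminescence; Hill-fit AC50.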

[16] = Cell Viability - LYMP1-002 - Assay at 16 hr (AID 948); conditions: LYMP1-002 lymphoblastoid cell viability; series mostly up to 92.2 µM; also: potency is read from the fitted curve at half-maximal effect
In short: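 Acute cytotoxicity is scored as a concentration-dependent fall in intracellular ATP in a human lymphoblastoid line (LYMP1-002) after 16 hr compound exposure at 37 C, measured by luciferase luminescence.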

[17] = MultiTox-Fluor Cytotoxicity Assay - LYMP1-002 - Dead Cells (AID 960); conditions: LYMP1-002 lymphoblastoid cells, dead-cell protease fluorescence; cytotoxicity (dead cells): at 46.1 µM (top of the series); also: potency is read from the fitted curve at half-maximal effect; nearly all actives have a fitted effect of over 60% in size
In short: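 Concentration-dependent increases in membrane-leaked protease activity are quantified in LYMP1-002 cells after 16 hr treatment; values are normalized against DMSO and tetraoctylammonium bromide (15 uM) controls and AC50 derived by Hill modeling.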

[18] = Cell Viability - LYMP1-003 - Assay at 40 hr (AID 964); conditions: LYMP1-003 lymphoblastoid viability; series mostly up to 92.2 µM; also: potency is read from the fitted curve at half-maximal effect; nearly all actives have a fitted effect of over 60% in size
In short: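 Acute toxicity is scored as a concentration-dependent loss of intracellular ATP in LYMP1-003 cells (2500/well, complete medium) after 40 hr at 37 C, measured by CellTiter-Glo luminescence; AC50 values derive from standard Hill modelling.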

[19] = Cell Viability - LYMP2-004 (AID 966); conditions: LYMP2-004 lymphoblastoid cell viability, qHTS; series mostly up to 92.2 µM;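 also: potency is read from the fitted curve at half-maximal effect; cells exposed to compound for 24 h; nearly all actives have a fitted effect of over 65% in size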
In short: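 Viable-cell number estimated from ATP luminescence (CellTiter-Glo) in 2500 human lymphoblastoid cells/well after 24 hr at 37 C with compound. AC50 fitted to the standard Hill equation.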

[20] = Cell Viability - LYMP2-019 (AID 973); conditions: LYMP2-019 lymphoblastoid cell line viability; series mostly up to 92.2 µM;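 also: potency is read from the fitted curve at half-maximal effect; cells exposed to compound for 24 h at 37 °C; nearly all actives have a fitted effect of over 55% in size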
In short: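 AC50 values come from Hill-equation modelling of qHTS concentration-response curves, where viability is measured as luciferase-based ATP luminescence in the lymphoblastoid line after 24 hr compound exposure in complete culture medium.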

[21] = Cell Viability - LYMP2-006 (AID 978); conditions: LYMP2-006 lymphoblastoid cell viability, qHTS; series mostly up to 92.2 µM;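 also: potency is read from the fitted curve at half-maximal effect; cells exposed to compound for 24 hours; nearly all actives have a fitted effect of over 60% in size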
In short: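 Concentration-dependent loss of intracellular ATP in a human lymphoblastoid line after 24 hr treatment at 37 C was measured by CellTiter-Glo luminescence, with AC50 values obtained from standard Hill-equation modelling.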

[22] = Cell Viability - LYMP2-008 (AID 980); conditions: LYMP2-008 lymphoblastoid cell viability, qHTS; also: potency is read from the fitted curve at half-maximal effect; nearly all actives have a fitted effect of over 60% in size
In short: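 Measured: ATP-dependent luminescence, proportional to viable cell number, in human lymphoblastoid cells treated 24 hr with compound in complete culture medium. Values are AC50s from Hill-equation modelling of qHTS titrations.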

[23] = Cell Viability - LYMP2-010 (AID 981); conditions: LYMP2-010 lymphoblastoid cell viability, qHTS; series mostly up to 92.2 µM;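 also: potency is read from the fitted curve at half-maximal effect; cells exposed to compound for 24 hours at 37 °C; nearly all actives have a fitted effect of over 55% in size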
In short: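 This 24 hr viability screen uses LYMP2-010 lymphoblastoid cells, quantifies ATP via luciferase luminescence, and derives AC50 from Hill fits of qHTS concentration-response data.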

[24] = Cell Viability - LYMP2-014 (AID 983); conditions: LYMP2-014 lymphoblastoid cells, viability qHTS; series mostly up to 92.2 µM;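 also: potency is read from the fitted curve at half-maximal effect; cells exposed to compound for 24 h at 37 °C; nearly all actives have a fitted effect of over 50% in size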
In short: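 Quantitative HTS in lymphoblastoid cells: 24 hr compound exposure, then CellTiter-Glo ATP luminescence. Positive control was tetraoctylammonium bromide, 6.4pM to 92 uM.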

[25] = Cell Viability - LYMP2-016 (AID 984); conditions: LYMP2-016 lymphoblastoid cell viability, qHTS; activity change, negative = cytotoxicity: at 92.2 µM (top of the series);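 also: potency is read from the fitted curve at half-maximal effect; cells exposed to compound for 24 hours at 37 °C; nearly all actives have a fitted effect of over 55% in size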
In short: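 Acute toxicity in a Coriell human lymphoblastoid line is scored as loss of intracellular ATP over 24 h of treatment in complete medium. CellTiter-Glo signal is fitted across concentrations with the Hill equation to give AC50.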

[26] = Cell Viability - LYMP2-018 (AID 985); conditions: LYMP2-018 lymphoblastoid cells, viability (qHTS); series mostly up to 92.2 µM; also: potency is read from the fitted curve at half-maximal effect; nearly all actives have a fitted effect of over 50% in size
In short: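 In this qHTS viability assay, cells are treated for 24 hr and cellular ATP is quantified by luciferase-based luminescence, with tetraoctylammonium bromide as positive control.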

[27] = Cell Viability - LYMP2-020 (AID 986); conditions: activity change, negative = viability loss: at 92.2 µM (top of the series);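 also: potency is read from the fitted curve at half-maximal effect; cells exposed to compound for 24 h at 37 °C; nearly all actives have a fitted effect of over 55% in size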
In short: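 Cells at 2500 per well receive a 24 hr compound exposure at 37 C. Viability is measured as ATP-dependent luciferase luminescence, with AC50 modeled from qHTS concentration-response curves.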
Tags tell the direction and shape of the fitted curve.

C[C@@H]1CC2(OC(O)[C@]3(C)O[C@H]23)O[C@H]2C[C@@]3(C)[C@@H]4CC[C@H]5C(C)(C)C(O[C@@H]6OC[C@@H](O)[C@H](O)[C@H]6O)CC[C@@]56C[C@@]46CC[C@]3(C)[C@@H]12 (some centres not stated)
active: Potency [8] 31.6 µM
inconclusive: Potency [2] 85.6 µM [partial curve] | Potency [3] 52.6 µM [partial curve] | activity change, negative = cytotoxicity [4] -44.6% | Potency [5] 50.1 µM [falling, partial curve] | activity change, negative = cytotoxicity [6] -63.3% | caspase-3 activation [7] 38.6% | Potency [9] 50.1 µM [rising, partial curve] | caspase-3 activation [10] 48.8% | caspase-3 activation [11] 43.3% | caspase-3 activation [12] 113% | caspase-3 activation [13] 66.3% | Potency [14] 79.4 µM [rising, single point] | Potency [15] 39.8 µM [cytotoxic, partial curve, poor fit] | Potency [16] 63.1 µM [cytotoxic, single point] | Potency [17] 31.6 µM [cytotoxic, single point] | Potency [18] 50.1 µM [cytotoxic, partial curve] | Potency [19] 50.1 µM [cytotoxic, partial curve, poor fit] | Potency [20] 50.1 µM [cytotoxic, partial curve, poor fit] | Potency [21] 50.1 µM [cytotoxic, partial curve, poor fit] | Potency [22] 39.8 µM [cytotoxic, partial curve] | Potency [23] 50.1 µM [cytotoxic, partial curve] | Potency [24] 50.1 µM [cytotoxic, partial curve] | Potency [25] 50.1 µM [cytotoxic, partial curve, poor fit] | Potency [26] 39.8 µM [cytotoxic, partial curve] | Potency [27] 50.1 µM [cytotoxic, partial curve, poor fit]
inactive: Potency [1]
